Measured values reported in PubChem BioAssay AID463173 (ICCB-Longwood Screening Facility, Harvard Medical School, 2010).
The whole screen tested about 52,000 compounds, of which about 1,700 (3.3%) were called active. No stated cut-off is given here; in the data, active means survival mostly below about 52% (no sharp cut-off); inactive means mostly above about 56%. The list shows a part of the results.

What follows are compounds tested on Wild type (assay: S. aureus survival, RN4220 and DeltatarO strains – OD600, teichoic acid synthesis inhibitors, primary screen (AID 463173)). Conditions: S. aureus RN4220 wild type/DeltatarO growth, OD600, 18 h, active compounds read low, screened at 18.75 µg/mL (by protocol).
In the case of `CCCn1c(SCc2nc(-c3ccccc3OCC)no2)nnc1-c1ccc(Cl)cc1`, the survival is reported as inactive: 78%. With `COC(=O)CSc1nnc(-c2ccco2)n1Cc1ccco1` the survival was inactive: 98%. For `CC(C)c1ccc(NC(=O)CSc2nc(=O)n(Cc3ccccn3)c3c2CCC3)cc1`, the survival was inactive: 136%. `N#Cc1nc(COc2cccc(Cl)c2)oc1NCCc1ccccc1` was tested, and the survival was inactive: 19%. In the case of `Cc1ccc(CCNC(=O)c2ccc3c(c2)nc2n3CCCCC2)cc1`, the survival is reported as inactive: 135%. In the case of `COC(=O)CNC(=O)C1CCN(S(=O)(=O)c2cccc3nsnc23)CC1`, the survival is reported as inactive: 89%. `Cc1ccc(C(=O)c2c(N)c(C(=O)Nc3ccccc3Cl)c3ccccn23)cc1` was tested, and the survival was inactive: 96%. With `CCOc1ccc(OCC(=O)NCCS(=O)(=O)N2CCN(c3ccccc3F)CC2)cc1` the survival was inactive: 74%. For `Cc1sc2ncn(CC(=O)Nc3cccc(C(F)(F)F)c3)c(=O)c2c1S(=O)(=O)N1CCN(C)CC1`, the survival was inactive: 75%. With `COc1ccc(S(=O)(=O)Nc2ccc(-c3ccc(N4CCCC4)nn3)cc2)cc1F` the survival was inactive: 75%. In the case of `COc1cccc(C(=O)CN2C3=NCCN3c3ccccc32)c1`, the survival is reported as inactive: 108%. `CN(c1ccc(F)cc1)S(=O)(=O)N1CCCC(C(=O)NCc2cccc(Br)c2)C1` (configuration not stated) was tested, and the survival was inactive: 85%. With `Cc1ccccc1Cc1c(C)nc2nc(SCC(=O)N(C)c3ccccc3)nn2c1C` the survival was inactive: 70%. For `Cc1c(C(=O)N2CCC(C)CC2)c(S(=O)(=O)NCc2ccc(Cl)cc2)c(C)n1C`, the survival was inactive: 133%. For `C=CCN(CC=C)C(=O)COc1ccc(Cl)cc1Cl`, the survival was inactive: 102%. For `CC1=C(C(=O)Nc2ccc(C)cc2C)C(c2ccc([N+](=O)[O-])cc2)n2ncc(C(=O)Nc3ccc(F)cc3)c2N1` (configuration not stated), the survival was inactive: 75%. With `Cc1ccc(-n2c(=O)c3c(cnn3C)n(CC(=O)Nc3ccc(C)cc3C)c2=O)cc1` the survival was inactive: 71%. `CC1(C)N([O-])C2=C(CCCC2)[N+]1=O` was tested, and the survival was inactive: 95%. In the case of `CC(=O)c1ccc(N2CCN(C(=O)CCC(=O)Nc3ccc4nc(N5CCCCC5)cc(C)c4c3)CC2)cc1`, the survival is reported as inactive: 83%. `CCN(CC)c1ccc2cc(-c3nc(-c4cccs4)no3)c(=O)oc2c1` was tested, and the survival was inactive: 98%. In the case of `CCCCN1C(=O)c2[nH]nc(-c3ccccc3O)c2C1c1ccc(OCc2ccccc2)cc1` (configuration not stated), the survival is reported as inactive: 69%. With `COc1ccc(S(=O)(=O)NCCc2csc3nc(-c4cccc(C)c4)nn23)cc1F` the survival was inactive: 67%. With `CC1CCN(S(=O)(=O)c2ccc3c(c2)c(=O)c(C(=O)NCCc2ccccc2)cn3C)CC1` the survival was inactive: 86%. `COc1ccccc1CNC(=O)c1c(O)nc2c(C)cccn2c1=O` was tested, and the survival was inactive: 71%. With `COc1ccccc1NC(=O)CSc1nnc(NC(=O)Nc2ccc(C)cc2)s1` the survival was inactive: 49%. In the case of `Cc1ccc(S(=O)(=O)N2CCCc3cc(NS(=O)(=O)c4cccc(Cl)c4)ccc32)cc1`, the survival is reported as inactive: 54%. For `CN(C)CCNC(=O)c1ccc2c(c1)NC(=O)C(CS(=O)(=O)Cc1cccc(Br)c1)N2` (configuration not stated), the survival was inactive: 120%. In the case of `CC(=O)c1ccc(NC(=O)CSc2nnc3ccc(-c4ccc(Br)cc4)nn23)cc1`, the survival is reported as inactive: 65%. `COc1ccc2c(c1)cc1c(=O)n(CC(=O)NC(C)C)nc(C)n12` was tested, and the survival was inactive: 78%. For `Cn1c(CS(=O)(=O)c2ccc(Cl)cc2)c(C#N)c2ccccc21`, the survival was inactive: 103%. For `CCc1ccc(NC(=O)C2CCCN2S(=O)(=O)c2ccc3c(c2)n(C)c(=O)c(=O)n3C)cc1` (configuration not stated), the survival was inactive: 72%. For `COc1ccccc1CNC(=O)CN(C)c1nn2c(=O)cc(C)nc2s1`, the survival was inactive: 90%. With `COc1cc(CN2CCN(C(=O)c3cccc4ccccc34)CC2)cc(OC)c1OC` the survival was inactive: 106%. For `COc1ccccc1NC(=O)CCC(=O)N1CC(C)Oc2ccc(C)cc21` (configuration not stated), the survival was inactive: 85%. For `Cc1cc(=O)c2cc(C(=O)Nc3ccc(C)c(C)c3)ccc2[nH]1`, the survival was inactive: 87%. With `Oc1ccc(CNc2ccccc2C(F)(F)F)c2cccnc12` the survival was inactive: 49%. `Cc1ccc(CNC(=O)C2CCN(S(=O)(=O)c3cccc4nonc34)CC2)cc1` was tested, and the survival was inactive: 85%. `COc1ccccc1NC(=O)CSc1nnc(NC(=O)NC2CCCCC2)s1` was tested, and the survival was inactive: 84%. With `Cc1nn(-c2ccccc2)c2c1cc1c(=O)[nH]c(=O)nc-1n2-c1cccc(Cl)c1` the survival was inactive: 73%. With `COc1ccccc1/C=C/c1nc(C#N)c(N2CCN(C)CC2)o1` the survival was inactive: 98%. In the case of `O=C(Nc1ccccc1)NC1CCN(CCCN2C(=O)c3ccccc3C2=O)CC1`, the survival is reported as inactive: 122%. For `CCc1ccc(NCc2cc3cc4c(cc3n(CC(=O)Nc3ccccc3OC)c2=O)OCCO4)cc1`, the survival was inactive: 68%. `Cc1cc(NC(=O)Nc2nnc(N(C)C3CCCCC3)s2)ccc1Br` was tested, and the survival was inactive: 82%. For `COc1ccc(C(=O)N2CCC(c3nc4ccccc4s3)CC2)cc1Cl`, the survival was inactive: 84%. For `Cc1ccc2oc(C(=O)Nc3ccc(S(=O)(=O)N(C)c4ccccc4)cc3)cc(=O)c2c1`, the survival was inactive: 108%. In the case of `O=C(NC1CCN(C(=O)Nc2cccc(F)c2)CC1)c1ccco1`, the survival is reported as inactive: 96%. `Cc1cccc(NC(=O)Cn2ncc3c4ccccc4n(Cc4ccccc4)c3c2=O)c1C` was tested, and the survival was inactive: 89%. With `Cc1ccc(S(=O)(=O)CCC(=O)Nc2ccc(OC(F)(F)F)cc2)cc1` the survival was inactive: 71%. With `CCC(Sc1nc2ccncc2[nH]1)C(=O)Nc1cc(Cl)ccc1C` (configuration not stated) the survival was inactive: 126%. For `COc1cc(Cl)c(C)cc1NC(=O)CSc1nc2c(c(=O)[nH]1)CCC2`, the survival was inactive: 79%. `O=C(c1ccc2c(c1)N(Cc1ccccc1F)C(=O)c1ccccc1S2(=O)=O)N1CCc2ccccc21` was tested, and the survival was inactive: 91%. With `CCc1ccccc1NC(=O)Cn1c(=O)n(CCCCCC(=O)NCc2ccc(C)cc2)c(=O)c2sccc21` the survival was inactive: 89%. In the case of `FC(F)(F)c1cccc(-n2nnnc2-c2ccccc2)c1`, the survival is reported as inactive: 101%. With `CCOC(=O)c1cccc(NC(=O)CC2C(=O)N(c3ccc(Cl)cc3)C(=O)N2C2CCCC2)c1` (configuration not stated) the survival was inactive: 85%. With `CCc1ccc(S(=O)(=O)c2nnn3c2nc(N2CCOCC2)c2sccc23)cc1` the survival was inactive: 88%. `CS(=O)(=O)N1CCC(c2nc(-c3ccc(S(=O)(=O)NCC4CCCO4)cc3)no2)CC1` (configuration not stated) was tested, and the survival was inactive: 113%. In the case of `Cc1ccc(N2CC(c3nc(-c4ccc(Cl)cc4)no3)CC2=O)cc1F` (configuration not stated), the survival is reported as inactive: 73%. For `Cc1cc(N2CCC(C(=O)Nc3ccc(F)cc3C)CC2)n2nc(C)c(-c3ccc(Cl)cc3)c2n1`, the survival was inactive: 77%. With `O=C(NCCc1ccc(Cl)cc1)c1ccco1` the survival was inactive: 104%. `Cc1cc(Br)ccc1NC(=O)C1CCCN(S(=O)(=O)c2cccc3nonc23)C1` (configuration not stated) was tested, and the survival was inactive: 96%. `CCc1cccc(CC)c1NC(=O)C1CCC(CNS(=O)(=O)c2cccc3nsnc23)CC1` (configuration not stated) was tested, and the survival was inactive: 65%. For `COc1ccc2cc3cc(C(=O)Nc4cc(C)c(Cl)cc4OC)oc3nc2c1`, the survival was inactive: 88%. For `COc1cc(Cl)c(NC(=O)c2cc(S(=O)(=O)N3CCCCC3)c[nH]2)c(OC)c1`, the survival was inactive: 123%. `Cc1sc2c(c1C)c(=O)n(-c1ccc(Cl)cc1)c(=O)n2Cc1cc(=O)n2cc(Br)ccc2n1` was tested, and the survival was inactive: 73%. In the case of `COc1ccc(NC(=O)CSc2oc(-c3ccc(F)cc3)nc2S(=O)(=O)c2ccc(C)cc2)c(OC)c1`, the survival is reported as inactive: 68%. For `CC(=O)c1cccc(NS(=O)(=O)c2cc(-c3onc(C)c3C)ccc2C)c1`, the survival was inactive: 84%. With `CCOC(=O)c1c(S(=O)(=O)N2CCCC(C(=O)NCc3ccccc3Cl)C2)c(C)n(C)c1C` (configuration not stated) the survival was inactive: 127%. In the case of `CCOc1ccccc1NC(=O)CSc1nc2c(sc3ccccc32)c(=O)n1CCCC(=O)NC1CCCC1`, the survival is reported as inactive: 90%. `COc1cc(NC(=O)C2CCN(S(=O)(=O)c3ccc4c(c3)CCCC(=O)N4)CC2)cc(OC)c1` was tested, and the survival was inactive: 67%. With `O=C(Nc1ccccc1)N(Cc1c[nH]c2ccccc12)C1CCCCCC1` the survival was inactive: 48%. `CNC(=O)c1ccc(CN2CCc3ccccc3C2)cc1` was tested, and the survival was inactive: 107%. For `COc1cccc(CNC(=O)c2ccc(CNS(=O)(=O)c3ccc(C)cc3)cc2)c1`, the survival was inactive: 91%. With `CCN(c1ccccc1)S(=O)(=O)c1nnc(NC(=O)c2ccccc2)s1` the survival was inactive: 69%. In the case of `Cc1cccc(N2CCN(C(=O)c3cnn(-c4ccccc4Cl)c3C3CCN(C(=O)OC(C)(C)C)CC3)CC2C)c1` (configuration not stated), the survival is reported as inactive: 66%. `COCCN1C(=O)C(=O)/C(=C(/O)c2ccccc2)C1c1ccccc1` (configuration not stated) was tested, and the survival was inactive: 105%. With `Cc1cccc(OCc2nc(CC(=O)Nc3ccc(C)cc3C)cs2)c1` the survival was inactive: 91%. For `CC1CCc2c(sc3nnn(CCCCOc4ccc(Cl)cc4)c(=O)c23)C1` (configuration not stated), the survival was inactive: 119%. `COc1ccc(CNCCCSc2nnnn2-c2ccccc2)cc1` was tested, and the survival was inactive: 86%. With `COc1ccc(S(=O)(=O)NCCc2sc(-c3cccnc3)nc2C)c(F)c1` the survival was inactive: 75%. In the case of `CCc1ccc(C2c3c(oc4ccc(F)cc4c3=O)C(=O)N2CCc2ccc(OC)cc2)cc1` (configuration not stated), the survival is reported as inactive: 69%. `CCN(CC)CCNC(=O)C(=O)NCC(c1cccnc1)N1CCN(c2ccc(F)cc2)CC1` (configuration not stated) was tested, and the survival was inactive: 83%. For `O=C(Nc1ccccc1C(F)(F)F)c1cc(-c2ccc3c(c2)OCCO3)on1`, the survival was inactive: 113%. With `Cc1ccc(CNC(=O)Cn2c(=O)ccc3cc(S(=O)(=O)N4CCC(C)CC4)ccc32)cc1` the survival was active: 10%. `COc1ccc(-c2cc(C(=O)NC(C)c3ccccc3)c3cc(C(C)C)ccc3n2)cc1` (configuration not stated) was tested, and the survival was inactive: 75%. In the case of `CCOC(=O)c1c(NC(=O)c2cc(OCC)c(OCC)c(OCC)c2)sc2c1CCCCC2`, the survival is reported as inactive: 83%. With `Cc1ccc(C2CCN(C(=O)Nc3ccc(Cl)cc3)C2)cc1` (configuration not stated) the survival was inactive: 71%. With `Cc1c(Cl)cccc1NC(=O)CNS(=O)(=O)c1cccs1` the survival was inactive: 91%.
